The source of these data is PubChem BioAssay AID1159614 (National Center for Advancing Translational Sciences (NCATS), 2016).

In all, about 45,000 compounds went through this assay and about 65 (0.1%) were called active. The call rests on the fitted dose curve; in most records, active means well fitted activation curve with a large enough effect; inconclusive means small, poorly fitted or top-dose-only effect; inactive means no such curve, though single readings can be large or run the other way. This is one part of the list.

UniProt P54803, sequence (P54803 whole entry, looked up): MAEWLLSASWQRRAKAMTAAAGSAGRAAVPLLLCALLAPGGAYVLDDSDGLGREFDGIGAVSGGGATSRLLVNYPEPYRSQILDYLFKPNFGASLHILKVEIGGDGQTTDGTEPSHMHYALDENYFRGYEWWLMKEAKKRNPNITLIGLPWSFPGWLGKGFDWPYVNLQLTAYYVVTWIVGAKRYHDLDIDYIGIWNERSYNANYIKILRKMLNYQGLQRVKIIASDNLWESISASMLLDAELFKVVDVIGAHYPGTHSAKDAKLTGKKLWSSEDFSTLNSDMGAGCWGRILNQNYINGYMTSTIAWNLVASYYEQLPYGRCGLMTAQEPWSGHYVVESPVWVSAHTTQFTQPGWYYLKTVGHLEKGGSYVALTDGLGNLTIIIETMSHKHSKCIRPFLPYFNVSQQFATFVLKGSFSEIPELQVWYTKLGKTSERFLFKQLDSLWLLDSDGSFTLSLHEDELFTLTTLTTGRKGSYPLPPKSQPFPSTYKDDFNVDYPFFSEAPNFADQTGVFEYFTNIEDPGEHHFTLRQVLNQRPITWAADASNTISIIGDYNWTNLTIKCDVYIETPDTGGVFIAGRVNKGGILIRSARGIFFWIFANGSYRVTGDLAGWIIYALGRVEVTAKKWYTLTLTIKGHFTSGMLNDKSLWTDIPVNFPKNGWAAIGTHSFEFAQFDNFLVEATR

For the test, the target named is Galactocerebrosidase (Homo sapiens) (UniProt P54803). Kind of test: A Novel Cell-Based Assay to Identify Small Molecules for B -Galactocerebrosidase. Further: 0% is about no effect; nearly all actives have a fitted effect of over 65% in size. Particulars: 145M-Twi-hGALC-G270D cells (Twitcher mouse brain line with human GALC G270D), HMU-beta-Gal fluorescence, 48 h; series mostly up to 57.5 µM; activation: at the top concentration. The method in brief:
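Mutant human GALC (G270D), stably expressed in a Twitcher mouse brain cell line lacking endogenous GALC, is measured in live-treated cells via 6-hexadecanoylamino-4-methylumbelliferyl-β-galactoside hydrolysis (0.1 mM final, pH 5.2) with fluorescent detection.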
As for `C=CCOc1ccccc1OCC(O)CNC(C)C` (stereo not given), the “activation” value was inactive: -13.7%.

As for `COc1ccc2c(CNCc3ccco3)c(C(=O)O)n(Cc3ccccc3)c2c1`, the “activation” value was inactive: 7.93%. For `COc1ccccc1NC(=O)COC(=O)CC(C)(C)CC1=NS(=O)(=O)c2ccccc2N1`, the “activation” value is inactive: -7.73%. To `COc1ccc(Cl)cc1NC(=O)Cn1nnc(C(=O)NCc2cccs2)c1N` belongs inactive: -11.5%.

Regarding `COc1ccc(-c2nnc(SCC(=O)c3ccc(NC(C)=O)cc3)o2)cc1OC`, the “activation” value is inactive: -5.74%. Then `COc1ccc(-c2nc3ccccc3o2)cc1NC(=O)c1ccc(OCC(C)C)cc1`, with inactive: -2.57%; and `COC(=O)c1c(-c2cccs2)csc1NC(=O)c1ccc(C(C)(C)C)cc1`, with inactive: -15.9%; and `CSc1ccc(C2c3[nH]c4ccccc4c3CCN2C(=O)CCC2CCCC2)cc1` (stereo not given), with inactive: 10.5%. Take `CCc1ccc(-n2c(=O)c3ccc(C(=O)NCCc4ccccc4)cc3n(Cc3ccccc3C#N)c2=O)cc1`: the “activation” value was inactive: -10.8%. For `O=C(Nc1ccc2nc(SCC(=O)N3CCCC3)sc2c1)c1cccc(F)c1`, the “activation” value is inactive: -10.5%. Then `O=C(NCCCN1CCCCC1)c1ccc2c(c1)sc1nc(-c3ccc(F)cc3)cn12`, with inactive: -14.2%; and `NC(=O)C1CCN(C(=O)c2ccc3c(c2)N(Cc2cccc(Cl)c2)C(=O)c2ccccc2S3(=O)=O)CC1`, with inactive: -16.4%. Then `CCOC(=O)c1c(-c2ccc(C)cc2C)csc1NC(=O)c1ccccc1Cl`, with inactive: -13.2%. Take `CCOc1ccc(NS(=O)(=O)c2ccc3[nH]cc(C(=O)N(C)C4CCCCC4)c(=O)c3c2)cc1`: the “activation” value is inactive: -12.5%. Regarding `Cc1ccc2c(=O)cc(C(=O)Nc3c(C(=O)c4ccccc4)oc4ccccc34)oc2c1`, the “activation” value was inactive: 0.735%.

Consider `CC(CNC(=O)c1ccc(Nc2nc3ccccc3n3nnnc23)cc1)c1ccccc1` (stereo not given), for which the “activation” value was inactive: -24.5%. To `NC(=O)Cn1c(=O)n(CCCCCC(=O)NCc2ccccc2Cl)c(=O)c2sccc21` belongs inactive: -4.9%; to `COCCNC(=O)Cn1cc2c(n1)-c1c(oc(C(=O)N3CCCC3)c1C)CC2`, inactive: -3.73%; to `COC(=O)c1c(-c2cccs2)csc1NC(=O)COc1ccccc1`, inactive: -15.1%. To `O=C(O)c1ccc[n+]([O-])c1` belongs inactive: -12.2%; to `CCC(=O)N1CCN(c2nc3c(C)cccc3s2)CC1`, inactive: -3.17%. On to `CCCCOC(=O)/C(C#N)=C/c1ccc(-c2ccc(Br)cc2)o1`, for which the “activation” value was inactive: -9.28%. Then `CCCn1c2ccccc2c2cnn(CC(=O)NC(C)CC)c(=O)c21` (stereo not given), with inactive: -8.89%; and `COc1ccc(OC(=O)CSc2nnc(-c3ccc(F)cc3)o2)cc1`, with inactive: -7.57%.

In the case of `Cc1c(N)c(=O)n(-c2ccccc2)n1C`, the “activation” value was inactive: -11.7%. On to `Cc1ccc(NC(=O)CCCN2C(=O)COc3ccc(C)cc32)c(C)c1`, for which the “activation” value was inactive: 0.762%. To `CCc1cccc(C)c1NC(=O)c1nc2ccccc2nc1N1CCCCC1` belongs inactive: -14.8%; to `COc1ccc2c(Sc3ccccc3)c(C(=O)N3CCC(C)CC3)[nH]c2c1`, inactive: -12.8%; to `Cc1ccc(N2C(=O)CSC23C(=O)N(CC(=O)Nc2ccc(C)cc2C)c2ccccc23)cc1` (stereo not given), inactive: -14.7%. Then `Cc1ccc([N+](=O)[O-])c(Oc2ncnc3c2oc2ccccc23)c1`, with inactive: -9.98%.

Consider `CC(C)Oc1ccc(CNC(=O)c2cnc3sc(N4CCCCCC4)nn3c2=O)cc1`, for which the “activation” value is inactive: -8.71%. To `Cc1ccc(NC(=O)c2cc(-c3cccs3)nc3ccccc23)c(C)c1` belongs inactive: -10.9%. To `O=C(NCc1ccc(F)cc1Cl)c1ccc(CSCc2ccccc2Cl)o1` belongs inactive: -17.1%; to `CC(C)CCn1c(=O)c2sccc2n2c(CCCC(=O)Nc3ccc(F)c(Cl)c3)nnc12`, inactive: -24.6%; to `Cc1ccc(N2CCN(C(=O)Nc3cn(CC(C)C)c(=O)c4ccccc34)CC2)c(C)c1`, inactive: -22%. To `CCCN(CCC)CCNC(=O)Cn1cnc2sc(C)c(S(=O)(=O)N3CCN(c4ccccc4OC)CC3)c2c1=O` belongs inactive: -27.2%; to `COc1ccccc1/C=C(\C#N)C(=O)NCC1CCCO1` (stereo not given), inactive: 18.1%; to `COc1cccc(CNC(=O)c2ccc(CN3CC(=O)N4CCCCC4C3=O)cc2)c1` (stereo not given), inactive: -7.29%. On to `CCn1c(C(=O)NCc2ccccc2)cc2sc(Cl)cc21`, for which the “activation” value was inactive: -20.6%. To `Cc1ccc(CNC(=O)c2ccc(CSCc3c(F)cccc3Cl)o2)cc1` belongs inactive: -3.59%.

Consider `CCOc1ccc(/C=C/c2nc(C#N)c(N3CCCCCC3)o2)cc1`, for which the “activation” value is inactive: -5.18%.

Turning to `COc1ccccc1NC(=O)N1CCOc2ccccc21`, the “activation” value is inactive: -17.4%. In the case of `Cc1cc(C)n2nc(CNS(=O)(=O)c3ccc(F)cc3)nc2n1`, the “activation” value was inactive: 3.24%.

`COc1ccccc1NC(=O)Cn1c(=O)n(Cc2nc(C)no2)c(=O)c2cc3c(cc21)OCO3`: the “activation” value was inactive: -6.01%. To `CCc1ccc(NC(=O)c2cc(CN3CCOCC3)on2)cc1` belongs inactive: -15%; to `CCOc1ccccc1NC(=O)CCS(=O)(=O)c1ccc(OC)cc1`, inactive: -2.79%. As to `CCOC(=O)c1[nH]c(C)c(C(=O)NCCc2ccccc2)c1C`, the “activation” value is inactive: 5.65%. Consider `CN(c1ccc(Cl)cc1)S(=O)(=O)c1nnc(NC(=O)c2ccco2)s1`, for which the “activation” value was inactive: -6.32%. To `O=C(CCn1c(=O)c2ccccc2n(Cc2ccc(Cl)cc2)c1=O)NCc1ccc2c(c1)OCO2` belongs inactive: 1.68%.

Turning to `CCOc1ccc(-n2c(SCC(=O)N3CCCc4ccccc43)nc3c([nH]c4ccccc43)c2=O)cc1`, the “activation” value is inactive: -13.6%. Then `Cc1cccc(-n2ccnc2SCC(=O)Nc2cc(C(F)(F)F)ccc2Cl)c1`, with inactive: -39.3%; and `CCCCN(C)CC(O)Cn1cc(/C=C/C(=O)c2ccc(OCC)cc2)c2ccccc21` (stereo not given), with inactive: -13%; and `CCCCC(=O)Nc1cccc(-c2nc3ccccc3s2)c1`, with inactive: -14.3%. To `COc1ccc(CCNC(=O)C(=O)Nc2ccc(C)c(C)c2)cc1OC` belongs inactive: -22.9%; to `CCn1cc(C(=O)NCc2ccccc2Cl)c(=O)c2cc(S(=O)(=O)N3CCOCC3)ccc21`, inactive: -8.07%. Then `C#CC(C)(CC)OC(=O)c1ccccc1C(=O)O` (stereo not given), with inactive: -20.3%; and `C[C@@H]1C[C@H]2[C@@H]3CCC4=CC(=O)C=C[C@]4(C)[C@@]3(F)[C@@H](O)C[C@]2(C)[C@H]1C(=O)CO`, with inactive: -11.2%. Regarding `CC(C)c1ccc(Nc2c(-c3ccsc3)nc3ccc(Cl)cn23)cc1`, the “activation” value was inactive: -13.6%. To `Cc1ccc(C)c(Oc2c(C(F)(F)F)oc3c(CN4CCN(C)CC4)c(O)ccc3c2=O)c1` belongs inactive: -12.2%; to `Cc1ccc2nc(NCCc3ccc(Cl)cc3)c3nncn3c2c1`, inactive: -5.5%; to `COc1ccc(C)cc1NC(=O)Cc1ccc(NC(=O)N2CCCCc3ccccc32)cc1`, inactive: -0.783%. As to `CCOC(=O)C1=C(CN(C)Cc2ccccc2)NC(=O)NC1c1ccc(OC(C)C)cc1` (stereo not given), the “activation” value is inactive: -13.7%. To `O=C(Nc1ccccc1[N+](=O)[O-])c1csnn1` belongs inactive: -9.48%; to `CCC(=O)C1=C(c2ccccc2)N(C(=O)CC)n2c(nnc2C2CCCCC2)S1`, inactive: -21.2%. Then `O=C(CSc1nc(-c2cccs2)cc(C(F)(F)F)n1)Nc1ccccc1Cl`, with inactive: -7.45%; and `O=C(Nc1ccc2nc(SCC(=O)N3CCc4ccccc43)sc2c1)c1ccc(Cl)cc1`, with inactive: -12.2%.

Regarding `Cc1ccc(CNC(=O)c2ccc(NC(=O)c3nsc4ccccc34)cc2)cc1`, the “activation” value was inactive: -28%. To `COC(=O)c1c(SC)nc2ccccc2c1OCc1cc(C)ccc1C` belongs inactive: -11.7%. Then `CCCOc1ccc(CNC(=O)c2cc3oc4ccccc4c3n2C)cc1`, with inactive: -4.8%; and `CCOc1ccccc1NC(=O)C(=O)NCC(c1cccnc1)N1CCN(c2ccccc2)CC1` (stereo not given), with inactive: -14%.

Take `Cc1ccc(NC(=O)CN2C(=O)C(c3ccc(F)cc3)=NC2(C)C)c(C)c1`: the “activation” value was inactive: -13.2%. To `Cc1cccc(C(=O)Nc2sc3c(c2C(=O)Nc2ccccc2)CCC3)c1` belongs inactive: 7.04%; to `CN(C)c1ccc(CNS(=O)(=O)c2csc(C(N)=O)c2)cc1`, inactive: 24%. Then `CCn1cc2nc(SCc3ccccc3)n(Cc3ccc(C)cc3)c(=O)c2n1`, with inactive: -12.6%; and `COc1cccc(NC(=O)Nc2cc(-c3cn4cccnc4n3)ccc2OC)c1`, with inactive: -7.8%; and `O=C(NCC(c1ccco1)S(=O)(=O)c1cccs1)c1ccc(C(F)(F)F)cc1` (stereo not given), with inactive: -12.6%. Then `CCOc1cc(Cl)c(S(=O)(=O)n2cc(C)nc2CC)cc1Cl`, with inactive: -26%; and `CCN(CCCCOC(=O)c1ccc(OC)c(OC)c1)C(C)Cc1ccc(OC)cc1` (stereo not given), with inactive: -5.06%. `COc1ccc(C)cc1NC(=O)c1cc(S(=O)(=O)NCCC2=CCCCC2)ccc1F`: the “activation” value was inactive: -10.8%. To `Clc1ccc(-c2noc3ncnc(N4CCCCC4)c23)cc1` belongs inactive: -4.99%; to `Cc1ccccc1NC(=O)CSc1nc2ccc(NC(=O)c3ccco3)cc2s1`, inactive: -34.4%. As to `Cc1cc(C(C)(C)C)cc(C)c1CC1=NCCN1`, the “activation” value is inactive: -7.21%. Take `COc1ccc(N2CC(C(=O)Nc3ccccc3-c3nc(-c4ccc(C)cc4)no3)CC2=O)cc1` (stereo not given): the “activation” value was inactive: -9.62%. To `COc1ccc(C(=O)NCCc2nc3ccccc3[nH]2)cc1` belongs inactive: 3.83%; to `Cn1c(=O)c2c(nc(NCc3ccccc3)n2Cc2ccc(Cl)c(Cl)c2)n(C)c1=O`, inactive: -5.78%. For `CCCSc1nc2c(c(=O)[nH]1)C(c1ccc(O)c(OCC)c1)CC(=O)N2` (stereo not given), the “activation” value was inactive: -4.32%. To `COc1ccc(-c2noc(CSc3nnc(C)n3-c3ccc(C)cc3)n2)cc1` belongs inactive: -14.6%. To `COc1cccc(NC(=O)c2oc3ccc(S(=O)(=O)N4CCC5(CC4)OCCO5)cc3c2C)c1` belongs inactive: -4.46%; to `Cc1ccccc1CSCc1ccc(C(=O)NCCc2ccccc2)o1`, inactive: -13.7%. Take `CC(C)(C)c1ccc(OCc2cc(=O)n3c4c(sc3n2)CCCC4)cc1`: the “activation” value is inactive: -11.8%. For the compound `CCOc1ccc(C(CC(=O)Nc2ccc(C(=O)OC)cc2)N2Cc3ccccc3C2=O)cc1OC` (stereo not given), the “activation” value is inactive: -23.7%. To `Oc1c(C(c2ccc(Cl)cc2Cl)N2CCCC2)sc2nc(-c3ccco3)nn12` (stereo not given) belongs inactive: 2.03%. To `CCOc1ccc(CCNC(=O)CCSCc2cccc(Cl)c2)cc1OCC` belongs inactive: 2.58%; to `COc1ccccc1NC(=O)CSc1nc(-c2cccc(Cl)c2)nc2c1Cc1c(CO)cnc(C)c1O2`, inactive: -1.28%; to `Cc1ccc(CCNC(=O)C2CCCN(S(=O)(=O)c3ccc4c(c3)oc(=O)n4C)C2)cc1` (stereo not given), inactive: -10.1%. Then `O=C(COc1ccc(F)cc1)OCc1cc(=O)n2nc(C3CC3)sc2n1`, with inactive: -8.4%; and `CCc1ccc(-n2nc(C)c3c(C)cc(=O)n(CC(=O)N(CC)Cc4ccccc4)c32)cc1`, with inactive: -12.5%. For the compound `CCc1ccc(C(=O)c2cn(Cc3ccccc3)c3cc(OC)c(OC)cc3c2=O)cc1`, the “activation” value was inactive: -18.7%.

As for `CN(C)c1ccc(NC(=O)C2(c3cccs3)CCOCC2)cc1`, the “activation” value is inactive: -26.6%. To `O=C(Nc1cc(Cl)ccc1O)c1cc2nc(-c3ccc4c(c3)OCO4)cc(C(F)(F)F)n2n1` belongs inactive: -14%.
